# In PubChem BioAssay (NCATS):
# Inconclusive means that the source gave no clear call. Such entries were picked first, then a sample of the others. For part of these data: Potencies beside an inconclusive call are fits to weak or partial responses and may not hold up. Active and inactive are the calls of the source. Unless noted, the call rests on the fitted dose curve; in most records, active means well fitted curve in the direction sought with a large enough effect; inconclusive means small, poorly fitted or top-dose-only effect, or another doubt; inactive means no such curve, though single readings can be large; an effect the other way counts as inactive or inconclusive. Bridge positions count the residues as written; N and C are the ends. Square brackets hold non-standard residues; d marks the D form. Peptide text beside a SMILES is read from it. * marks the point of attachment. ξ: configuration not given here. ξDab(CH2SO3H) = NC(CCNCS(=O)(=O)O)C(=O)O; Octanoyl(6-Me) = CCC(C)CCCCC(=O)*; Dab = NCC[CH](N)C(=O)O
# Tests used:
# [1] = Confirmatory screen GU Rhodamine qHTS for Zika virus inhibitors qHTS (AID 1347157); further: nearly all actives have a fitted effect of over 70% in size; further: potency means the concentration at half of the fitted maximal effect;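 on activity change, negative = inhibition: plate controls were no-inhibitor wells for no effect and no-enzyme wells for full effect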
# Summary of the method: (§1)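 In dose–response format, inhibition of unlinked protease (25 nM) was measured with 1.5 microM bis-peptide Rhodamine110 substrate. Aprotinin served as the intraplate control.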
# [2] = ZIKV-mCherry secondary qHTS for Zika virus inhibitors (AID 1347158); settings: Vero cells, ZIKV-mCherry infection imaging, 48-72 h; activity change, negative = inhibition: at 49.2 µM (top of the series); further: potency means the concentration at half of the fitted maximal effect; on activity change, negative = inhibition: top concentration of the series differs between compounds
# Summary of the method: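 Read-out is percent infection: mCherry-positive Vero cells (nuclear-proximal intensity >450 RFU, 3 SD above negative controls) counted by high-content imaging of Hoechst-stained, PFA-fixed wells after 48-72 h with ZIKV-mCherry at MOI 1 and compound.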
# [3] = Confirmatory screen NINDS Rhodamine qHTS for Zika virus inhibitors (AID 1347161); further: potency means the concentration at half of the fitted maximal effect; nearly all actives have a fitted effect of over 60% in size
# Summary of the method: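 Percent inhibition, normalized to uninhibited and enzyme-free controls, is fitted to a 4-parameter Hill equation. Fluorescence change comes from a 15-min cleavage of 1.5 microM bis-peptide Rhodamine110 substrate by 25 nM linked NS2B-NS3 at room temperature.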
# [4] = system: Zika virus NS2B-NS3 protease (linked construct); assay: 384 well plate NINDS Rhodamine confirmatory qHTS for Zika virus inhibitors (AID 1347164);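 further: fluorescence from protease cleavage of Ac-LKRR-rhodamine 110 substrate; nearly all actives have a fitted effect of over 65% in size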; further: potency means the concentration at half of the fitted maximal effect;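 on activity change, negative = inhibition: top concentration of the series differs between compounds; plate controls were no-inhibitor control for no effect and no-enzyme control for full effect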
# Summary of the method: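 Fluorescence read at ex 485 nm/em 538 nm, 25 min after adding 10 microM Ac-LKRR-Rd substrate at room temperature in the dark; signal normalized to no-enzyme and no-inhibitor controls. Enzyme final 5, 30 or 60 nM; compounds, ~15 min preincubation.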
# [5] = Tertiary RLuc qRT-PCR qHTS assay for Zika virus inhibitors (AID 1347169); further: nearly all actives have a fitted effect of over 55% in size; further: potency means the concentration at half of the fitted maximal effect; on activity change, negative = inhibition: top concentration of the series differs between compounds; on the % scale 0 is the no-effect control and ±100 the full control effect
# Summary of the method: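 Luminescence read-out: live-cell Renilla luciferase substrate applied to infected Vero cells, signal measured after 1-1.5 hrs. Cells had received compound before ZIKV-RLuc (Cambodian strain, MOI 1-2) infection and were incubated 48-72 hrs at 37 degrees C.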
# [6] = system: Zika virus NS2B-NS3 protease (linked); assay: 384 well plate NINDS AMC confirmatory qHTS for Zika virus inhibitors (AID 1347163); further: nearly all actives have a fitted effect of over 50% in size; further: potency means the concentration at half of the fitted maximal effect;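 on activity change, negative = inhibition: linked protease at 5 30 or 60 nM final depending on run; fluorescence of AMC released from Ac-VKTGKR-AMC peptide cleaved by the protease; top concentration of the series differs between compounds; 0% = no-inhibitor control and -100% = no-enzyme control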
# Summary of the method: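 Enzyme (5, 30 or 60 nM final) first met test compounds for ~15 min. The AMC-tagged peptide Ac-VKTGKR-AMC followed at 30 microM. Fluorescence was then recorded at 25 min and scaled against no-enzyme and no-inhibitor wells.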
# [7] = target: 3',5'-cyclic-AMP phosphodiesterase 4B (Homo sapiens) (UniProt Q07343); assay: qHTS Assay for Inhibitors of PDE-IV (AID 607; active means well fitted activation curve with a large enough effect in the main read-out, with a control signal flat, not every such curve was filed as active; inconclusive means small, poorly fitted or top-dose-only effect, or effect the other way, or a change in a side signal; further: potency means the concentration at half of the fitted maximal effect); settings: HEK293 ACTOne CNG channel cells, membrane potential fluorescence; activation (PDE inhibition): at 22.9 µM (top of the series)
# Summary of the method: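 HEK293 ACTOne cells with CNG channel (1000/well), endogenous PDE4; membrane potential dye, compounds up to 22.9 uM final. Fluorescence Ex 535/Em 590; RO 20-1724 (100 uM final) as reference.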
# [8] = target: Cytochrome P450 3A4 (Homo sapiens) (UniProt P08684); assay: qHTS Assay for Activators of Cytochrome P450 3A4 (AID 885); further: potency means the concentration at half of the fitted maximal effect; nearly all actives have a fitted effect of over 65% in size
# Summary of the method: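 Human CYP3A4 dealkylates Luciferin-PPXE to luciferin, which luciferase detection converts to light. Substrate was at its KM (25uM), buffer 200mM KPO4, reaction 60 min at RT.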
# [9] = qHTS Assay for Identification of Small Molecule Antagonists for NFkB Signaling Pathway (AID 895; active means well fitted inhibition curve with a large enough effect in the signal ratio, with a control signal flat, not every such curve was filed as active; inconclusive means small, poorly fitted or top-dose-only effect, or effect the other way, or a change in a side signal; the % refers to the signal ratio; further: on the % scale 0 is the no-effect control and ±100 the full control effect); settings: NFkB beta-lactamase reporter cells, FRET ratio 460/530, stimulated with 10 pM TNF alpha; activity change, negative = inhibition: at 38.3 µM (top of the series)
# Summary of the method: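 Beta-lactamase reporter read-out (460 and 530 nm emission ratio, 405 nm excitation, 2 hrs substrate loading RT) after 5 hr stimulation with 10 pM TNF alpha in compound-treated NFkB-bla ME-180 cells in low-serum medium.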
# [10] = qHTS Assay for Identification of Small Molecule Antagonists for Thrombopoietin (TPO) Signaling Pathway (AID 918); settings: TPO-dependent cell signaling reporter, antagonist mode; activity change, negative = inhibition: at 38.5 µM (top of the series); further: nearly all actives have a fitted effect of over 60% in size
# Summary of the method: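 Luminescence read-out: GPIIb-promoter luciferase in Ba/F3 cells carrying human TPO receptor. Compounds added with 26 pM TPO (EC50), 24 hrs, 37 C, 5% CO2; cells deprived of IL-3 overnight beforehand. Inhibition of signal scored.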
# [11] = target: Muscarinic acetylcholine receptor M1 (Rattus norvegicus) (UniProt P08482); assay: qHTS Assay for Antagonists of Acetylcholine Muscarinic M1 Receptor: Measurement of IP-One Response (AID 944); further: nearly all actives have a fitted effect of over 75% in size
# [12] = system: Zika virus NS2B-NS3 protease; assay: Primary screen GU AMC qHTS for Zika virus inhibitors (AID 1347154); further: nearly all actives have a fitted effect of over 70% in size; further: potency means the concentration at half of the fitted maximal effect;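 on activity change, negative = inhibition: 0% = no-inhibitor control and -100% = no-enzyme control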
# Summary of the method: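 Fluorogenic AMC-substrate cleavage by noncovalent NS2B-NS3 protease complex (25 nM, pH 8.0 Tris buffer with Tween 20) followed for 15 minutes at room temperature (~20% conversion). Percent inhibition from ex340/em450 signal change, fitted by 4-parameter Hill equation.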
# [13] = target: Mitogen-activated protein kinase 10 (Mus musculus) (UniProt Q61831); assay: JNK3 AlphaScreen Assay (AID 530; active means well fitted curve in either direction with a large enough effect, not every such curve was filed as active; inconclusive means small, poorly fitted or top-dose-only effect, or another doubt;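 further: kinase came from lysate of stimulated human HepG2 cells; signal reports phosphorylation of biotinylated GST-cJun 1-79 at Ser73 with 10 µM ATP; potency means the concentration at half of the fitted maximal effect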); settings: JNK3 lysate, c-Jun phosphorylation; activity change, negative = inhibition: at 57.1 µM (top of the series)
# Summary of the method: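 Kinase buffer: 20 mM Tris-HCl pH 7.6, 10 mM MgCl2, 1 mM DTT, 0.1 mM Na3VO4, 0.01% Tween-20; ATP 10 uM. Substrate biotin-GST-cJun(1-79), enzyme from activated HepG2 lysates. Detection by Ser73 phospho-antibody AlphaScreen.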
# [14] = target: Ubiquitin carboxyl-terminal hydrolase 1 (Homo sapiens) (UniProt O94782); assay: Inhibitors of USP1/UAF1: Pilot qHTS (AID 504865);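 further: rhodamine fluorescence freed from ubiquitin-rhodamine substrate followed over time; potency means the concentration at half of the fitted maximal effect; nearly all actives have a fitted effect of over 35% in size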
# Summary of the method: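 1nM USP1/UAF1 + cpd, 15 min RT; start w/ Ub-Rho 150nM final; kinetic FL 480/540 nm, 6 reads q60 s. Buffer 50mM HEPES pH 7.8, 0.5mM EDTA, 1mM TCEP, 0.01% Tween-20, 0.1 mg/ml BSA.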
# 3D7 = assay: qHTS profiling for inhibitors of Plasmodium falciparum proliferation (AID 504749); further: nearly all actives have a fitted effect of over 60% in size; further: potency means the concentration at half of the fitted maximal effect;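 on activity, negative = inhibition: 0% = DMSO vehicle and full inhibition = artemisinin control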; settings: P. falciparum in erythrocytes, SYBR Green DNA, 72 h
# Summary of the method: (§2)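 In a 72 h erythrocytic culture (37 C, humidified, 5% CO2) at 2.5% hematocrit and 0.3% starting parasitemia, compounds were tested; SYBR Green I in detergent lysis buffer stained parasite DNA overnight.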
# CP192 = assay: as above; settings: P. falciparum in erythrocytes, SYBR Green DNA, 72 h
# Summary of the method: as §2
# CP268 = assay: as above; settings: P. falciparum in erythrocytes, SYBR Green DNA, 72 h
# Summary of the method: as §2
# CP269 = assay: as above; settings: P. falciparum in erythrocytes, SYBR Green DNA, 72 h
# Summary of the method: as §2
# CP297 = assay: as above; settings: P. falciparum in erythrocytes, SYBR Green DNA, 72 h; activity, negative = inhibition: at 28.7 µM (top of the series)
# Summary of the method: as §2
# DIV30 = assay: as above; settings: P. falciparum in erythrocytes, SYBR Green DNA, 72 h
# Summary of the method: as §2
# W2 = assay: as above; settings: P. falciparum in erythrocytes, SYBR Green DNA, 72 h
# Summary of the method: as §2
# [15] = target: Cytochrome P450 3A4 (Homo sapiens) (UniProt P08684); assay: qHTS Assay for Inhibitors and Substrates of Cytochrome P450 3A4 (AID 884); settings: recombinant CYP3A4, Luciferin-PPXE luminescence; activity change, negative = inhibition: at 57.1 µM (top of the series); further: on the % scale 0 is the no-effect control and ±100 the full control effect; nearly all actives have a fitted effect of over 50% in size
# Summary of the method: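 Luminescent readout of luciferin produced by CYP3A4 (20 nM) dealkylation of Luciferin-PPXE, 25 uM (its KM). NADPH-driven reaction ran 60 min at RT after 10 min compound preincubation; data scaled to 57 uM ketoconazole as 100% inhibition.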
# [16] = system: Zika virus NS2B-NS3 protease (unlinked complex); assay: Primary screen GU Rhodamine qHTS for Zika virus inhibitors: Unlinked NS2B-NS3 protease assay (AID 1347159); further: on the % scale 0 is the no-effect control and ±100 the full control effect; nearly all actives have a fitted effect of over 60% in size
# Summary of the method: as §1
# [17] = Primary redox qHTS assay for identification of artifact compounds. (AID 1845223); further: potency means the concentration at half of the fitted maximal effect
# Summary of the method: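 Redox-cycling detection via DTT (250 uM final) oxidation coupled to Amplex Red (25 uM)/HRP (250 mU/mL) in HBSS. 15 min preincubation plus 30 min after DTT, room temperature. Ex/Em 525/598 nm; 4-parameter Hill fit against DMSO and 10 uM DA3003.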
# Tags describe the fitted curve by direction and shape.
# Chain of UniProt Q07343 (Q07343 whole entry, looked up): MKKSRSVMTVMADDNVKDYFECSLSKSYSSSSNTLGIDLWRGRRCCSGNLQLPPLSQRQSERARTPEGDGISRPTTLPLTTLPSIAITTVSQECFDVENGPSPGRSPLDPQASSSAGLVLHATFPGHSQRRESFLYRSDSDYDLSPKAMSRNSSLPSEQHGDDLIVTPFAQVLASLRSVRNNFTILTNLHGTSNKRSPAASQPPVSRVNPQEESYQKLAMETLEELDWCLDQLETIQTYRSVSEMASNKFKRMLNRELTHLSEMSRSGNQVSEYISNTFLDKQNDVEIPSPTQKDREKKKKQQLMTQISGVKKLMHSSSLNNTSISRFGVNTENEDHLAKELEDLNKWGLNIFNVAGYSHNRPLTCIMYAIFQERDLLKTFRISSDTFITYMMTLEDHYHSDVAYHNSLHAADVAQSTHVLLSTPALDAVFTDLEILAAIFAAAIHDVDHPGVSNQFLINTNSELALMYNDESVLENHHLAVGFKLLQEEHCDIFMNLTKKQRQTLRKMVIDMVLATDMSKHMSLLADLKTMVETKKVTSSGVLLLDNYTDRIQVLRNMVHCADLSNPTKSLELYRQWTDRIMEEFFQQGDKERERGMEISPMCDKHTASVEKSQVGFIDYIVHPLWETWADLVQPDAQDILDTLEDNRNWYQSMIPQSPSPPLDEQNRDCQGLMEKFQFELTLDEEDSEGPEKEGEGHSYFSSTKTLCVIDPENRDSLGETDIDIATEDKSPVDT
# Chain of UniProt P08684 (P08684 whole entry, looked up): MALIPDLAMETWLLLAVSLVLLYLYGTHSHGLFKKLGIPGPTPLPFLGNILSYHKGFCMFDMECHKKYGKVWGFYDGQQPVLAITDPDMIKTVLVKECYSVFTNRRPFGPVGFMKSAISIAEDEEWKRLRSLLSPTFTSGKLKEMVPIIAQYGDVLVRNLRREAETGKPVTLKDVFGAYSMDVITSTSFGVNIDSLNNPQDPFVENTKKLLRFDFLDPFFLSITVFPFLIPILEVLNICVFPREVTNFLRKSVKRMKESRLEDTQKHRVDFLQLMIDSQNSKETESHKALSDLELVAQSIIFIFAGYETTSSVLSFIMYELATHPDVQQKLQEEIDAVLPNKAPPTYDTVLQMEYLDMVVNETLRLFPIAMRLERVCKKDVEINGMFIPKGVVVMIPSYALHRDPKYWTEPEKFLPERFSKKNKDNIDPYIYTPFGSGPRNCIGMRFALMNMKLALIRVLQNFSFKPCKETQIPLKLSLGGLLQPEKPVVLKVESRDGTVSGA
# Chain of UniProt P08482 (P08482 whole entry, looked up): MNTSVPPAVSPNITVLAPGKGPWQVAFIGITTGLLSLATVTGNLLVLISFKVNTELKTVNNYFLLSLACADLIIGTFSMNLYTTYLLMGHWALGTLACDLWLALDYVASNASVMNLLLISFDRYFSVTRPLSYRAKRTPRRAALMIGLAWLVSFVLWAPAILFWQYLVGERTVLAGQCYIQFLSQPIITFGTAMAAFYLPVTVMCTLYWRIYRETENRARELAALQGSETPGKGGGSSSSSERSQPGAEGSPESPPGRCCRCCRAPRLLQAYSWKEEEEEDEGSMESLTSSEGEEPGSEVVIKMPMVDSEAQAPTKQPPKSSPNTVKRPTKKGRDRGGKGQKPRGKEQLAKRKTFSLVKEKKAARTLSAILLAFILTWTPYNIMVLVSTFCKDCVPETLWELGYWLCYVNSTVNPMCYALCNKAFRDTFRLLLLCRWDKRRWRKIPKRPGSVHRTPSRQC
# Chain of UniProt O94782 (O94782 whole entry, looked up): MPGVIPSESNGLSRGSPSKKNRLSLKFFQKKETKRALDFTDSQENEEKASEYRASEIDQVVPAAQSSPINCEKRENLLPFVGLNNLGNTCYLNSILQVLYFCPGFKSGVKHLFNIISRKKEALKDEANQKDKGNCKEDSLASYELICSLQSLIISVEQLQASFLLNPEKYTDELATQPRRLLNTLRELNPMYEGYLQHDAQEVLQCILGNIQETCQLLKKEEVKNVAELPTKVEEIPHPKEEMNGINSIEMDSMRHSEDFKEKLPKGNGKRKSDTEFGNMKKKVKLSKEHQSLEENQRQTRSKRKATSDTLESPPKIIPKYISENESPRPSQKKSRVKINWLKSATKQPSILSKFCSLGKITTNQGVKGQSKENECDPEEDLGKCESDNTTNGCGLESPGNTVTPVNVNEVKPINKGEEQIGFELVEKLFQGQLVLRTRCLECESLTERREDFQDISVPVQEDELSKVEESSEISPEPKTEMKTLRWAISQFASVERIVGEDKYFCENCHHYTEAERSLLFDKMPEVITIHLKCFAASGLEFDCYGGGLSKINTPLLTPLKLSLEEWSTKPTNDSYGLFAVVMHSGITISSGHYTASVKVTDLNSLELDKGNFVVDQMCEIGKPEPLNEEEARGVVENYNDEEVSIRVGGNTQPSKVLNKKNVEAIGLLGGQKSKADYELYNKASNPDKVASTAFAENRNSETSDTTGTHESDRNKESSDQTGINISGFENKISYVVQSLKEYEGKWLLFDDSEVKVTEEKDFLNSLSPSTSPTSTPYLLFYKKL
smiles,measurement,setting,value
Cc1oc2c(cc(NS(=O)(=O)c3ccc(C(C)C)cc3)c3ccccc32)c1C(=O)OCc1ccccc1,Potency,[1],"inconclusive: 39.8 µM [inhibitor, partial curve]"
same,Potency,[2],inactive
same,Potency,[3],"inconclusive: 50.1 µM [inhibitor, single point]"
same,Potency,[4],"inconclusive: 178 µM [inhibitor, full curve]"
same,Potency,[5],"inconclusive: 0.138 µM [inhibitor, full curve, poor fit]"
COc1ccc(/C=C(\C#N)c2nc(-c3cc4c(ccc5ccccc54)oc3=O)cs2)cc1O,Potency,[1],"inconclusive: 14.1 µM [inhibitor, partial curve]"
same,Potency,[2],inactive
same,Potency,[3],"inconclusive: 25.1 µM [inhibitor, full curve]"
same,Potency,[6],"inconclusive: 79.4 µM [inhibitor, partial curve, poor fit]"
same,Potency,[4],"inconclusive: 200 µM [inhibitor, partial curve, poor fit]"
same,Potency,[5],"inconclusive: 0.33 µM [inhibitor, partial curve, poor fit]"
Cc1ccc(-c2nnc(Nc3ccc(Br)cc3)c3ccccc23)cc1S(=O)(=O)NCc1nc2ccccc2[nH]1,Potency,[1],"inconclusive: 28.2 µM [inhibitor, partial curve]"
same,Potency,[2],inactive
same,Potency,[3],"inconclusive: 44.7 µM [inhibitor, partial curve]"
same,Potency,[6],inactive
same,Potency,[4],inactive
same,Potency,[5],"inconclusive: 39.8 µM [inhibitor, partial curve, poor fit]"
CC(N)=NCCCC[C@H](N)C(=O)O,Potency,[7],"inconclusive: 19 µM [inhibitor, single point]"
same,Potency,[8],"inconclusive: 2 µM [activator, partial curve]"
same,"activity change, negative = inhibition",[9],inconclusive: 22.8%
same,"activity change, negative = inhibition",[10],inconclusive: -4.8% [phenotype inactive]
same,Potency,[11],inactive
same,Potency,[12],inactive
Cc1cn2c(=O)cc(COC(=O)c3ccc(NC(=O)c4ccc(C(C)(C)C)cc4)cc3)nc2s1,Potency,[1],inactive
CCCCCCCNS(=O)(=O)c1cccc2c(Cl)cccc12,Potency,[13],"inconclusive: 39.8 µM [activator, partial curve]"
same,Potency,[7],"inconclusive: 15.1 µM [rising, partial curve]"
same,Potency,[14],"inconclusive: 12.6 µM [inhibitor, full curve]"
same,Potency,[12],"inconclusive: 10.6 µM [inhibitor, partial curve]"
CCC(C)CCCCC(=O)NC(CCNCS(=O)(=O)O)C(=O)NC(C(=O)NC(CCNCS(=O)(=O)O)C(=O)NC1CCNC(=O)C(C(C)O)NC(=O)C(CCNCS(=O)(=O)O)NC(=O)C(CCNCS(=O)(=O)O)NC(=O)C(CC(C)C)NC(=O)C(CC(C)C)NC(=O)C(CCNCS(=O)(=O)O)NC1=O)C(C)O (configuration not stated) ({Octanoyl(6-Me)}-[ξDab(CH2SO3H)]T[ξDab(CH2SO3H)][Dab][ξDab(CH2SO3H)]LL[ξDab(CH2SO3H)][ξDab(CH2SO3H)]T; lactam 4-C; configuration not given here),Potency,[1],"inconclusive: 35.5 µM [inhibitor, partial curve]"
same,Potency,[2],"inconclusive: 39.8 µM [inhibitor, single point]"
O=C(O)COc1ccccc1C1Nc2ccccc2-c2nnc(SCc3ccc(Cl)cc3)nc2O1 (configuration not stated),Potency,[1],"inconclusive: 50.1 µM [inhibitor, partial curve]"
same,Potency,[2],inactive
same,"activity change, negative = inhibition",[5],inactive: 63.5% [at 1.74 µM]
COc1cccc(C(=O)Nc2ccc(C(=O)OCc3cc(=O)n4nc(C5CC5)sc4n3)cc2)c1,Potency,[1],"inconclusive: 31.6 µM [inhibitor, partial curve]"
same,Potency,[2],"inconclusive: 3.16 µM [inhibitor, full curve]"
same,Potency,[6],inactive
same,Potency,[4],inactive
same,Potency,[5],"inconclusive: 1.23 µM [inhibitor, single point]"
CCOc1ccc(S(=O)(=O)Nc2cc3c(C(=O)OCc4ccccc4)c(C)oc3c3ccccc23)cc1,Potency,[1],"inconclusive: 50.1 µM [inhibitor, single point]"
same,Potency,[2],inactive
same,Potency,[3],"inconclusive: 50.1 µM [inhibitor, single point]"
same,Potency,[6],"inconclusive: 126 µM [inhibitor, full curve]"
same,Potency,[4],active: 316 µM
same,Potency,[5],"inconclusive: 4.91 µM [inhibitor, single point]"
C/C=C1\C2C=C(C)CC1(N)c1ccc(=O)[nH]c1C2 (configuration not stated),Potency,[12],inactive
same,Potency,3D7,inactive
same,Potency,CP192,"inconclusive: 4.26 µM [inhibitor, partial curve, poor fit]"
same,Potency,CP268,inactive
same,Potency,CP269,inactive
same,Potency,CP297,"inconclusive: 0.019 µM [inhibitor, full curve, poor fit]"
same,Potency,DIV30,inactive
same,Potency,W2,inactive
CC[C@@H]1Cn2c(c3nc(-c4ccccc4)nc-3n(C)c2=O)N1,Potency,[15],inactive
same,Potency,[12],"inconclusive: 9.47 µM [inhibitor, partial curve]"
O=C(O)CC/C=C\C[C@H]1CO[C@@H](c2ccccc2Cl)O[C@H]1c1ccccc1O,Potency,[1],active: 31.2 µM
same,Potency,[16],inactive
same,Potency,[17],"inconclusive: 21.2 µM [activator, partial curve, poor fit]"
